Experimental findings from US20070066800A1, “Apo2l(trail) receptor binding peptides and uses thereof” (priority 2003, published 2007) are described below.

Assay [1] deals with SK-MES-1 human lung carcinoma cells. The assay can be described thus: Alamar blue bioassay of apoptosis induction. It is filed as cell-based. As to conditions: SK-MES-1 cells, 24 hours, alamarBlue; values in nM; read-out: Ec 50 bio-assay. On the procedure:
Alamar Blue Assay of Ability of Apo-2 Receptor binding Peptides to Agonistically Induce Apoptosis
Briefly, serial 2-fold dilutions of Apo-2L.0 or this Apo2L receptor binding peptide were made in RPMI-1640 media (Gibco) containing 0.1% BSA, and 50 μL of each dilution was transferred to individual wells of 96-well Falcon tissue culture microplates. The terms “Apo-2L.0” and “Apo2L.0” refer to a form of Apo-2 ligand polypeptide consisting of amino acids 114 to 281 of FIG. 1 (amino acids 114 to 281 of SEQ ID NO: 1) and not linked or conjugated to any epitope tag sequences. After the Apo-2L.0 or Apo2L receptor binding peptide dilution step, 50 μL of SK-MES-1 human lung carcinoma cells (ATCC HTB58) (in RMPI-1640, 0.1% BSA) were added at a density of 2×10^4 cells/well. These mixtures were incubated at 37° C. for 24 hours. At 21 hours, 25 μL of alamarBlue (AccuMed, Inc., Westlake, Ohio) was added. Fluorescence was read using 96-well fluorometer with excitation at 530 nm and emission of 590 nm. The results are expressed in relative fluorescence units (RFU). For data analysis the 4-parameter curve fitting program (Kaleidagraph) was used.
“Ec 50” refers to the median effective concentration of peptide observed to induce apoptosis in 50% of the cell population.
(In general: Resazurin is reduced to fluorescent resorufin, in cell work by metabolically active cells.)

The target of assay [2] is T1, human DR5-ECD (SEQ ID NO: 105) (Homo sapiens, UniProt O14763, A67V/E190F/V191A).
T1 construct: Human DR5-ECD long form polypeptide
T1 sequence (O14763 with tags, fused parts or gaps A67V/E190F/V191A): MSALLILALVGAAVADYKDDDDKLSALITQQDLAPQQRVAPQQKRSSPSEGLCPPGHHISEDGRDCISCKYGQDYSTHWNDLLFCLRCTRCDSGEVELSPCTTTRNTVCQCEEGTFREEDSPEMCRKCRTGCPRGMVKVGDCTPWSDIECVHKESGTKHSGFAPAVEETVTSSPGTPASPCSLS
The assay can be described thus: ELISA: inhibition of binding of Apo-2L to Apo-2L receptor human DR5-ECD. As to conditions: LB881 fused to GCN4 leucine zipper, linker GGSGGM; read-out: Ic 50 Elisa. Background: In an ELISA, binding on a coated surface is turned into a signal by an enzyme label.

Take “GEVCLTSCSRLRGGSGGM KLKQIEDKLEEILSKLYHIENELARIKKLVGER (GEVCLTSCSRLRGGSGGMKLKQIEDKLEEILSKLYHIENELARIKKLVGER) [LB881-Tetramer]”: the EC50 in assay [1] came to 166 nM. For the same sequence, the IC50 in assay [2] came to 7 nM.
